The source of these data is patent US10357514B2, “Treatment of cancer using anti-CD19 Chimeric Antigen Receptor” (The Trustees of the University of Pennsylvania, priority 2014, dated 2019).

One experiment deals with T1, ITK (Homo sapiens, UniProt Q08881).
T1 construct: endogenous in cells; host or cells: human CART19 T cells (lentivirally transduced donor T cells)
T1 sequence (Q08881 1-620): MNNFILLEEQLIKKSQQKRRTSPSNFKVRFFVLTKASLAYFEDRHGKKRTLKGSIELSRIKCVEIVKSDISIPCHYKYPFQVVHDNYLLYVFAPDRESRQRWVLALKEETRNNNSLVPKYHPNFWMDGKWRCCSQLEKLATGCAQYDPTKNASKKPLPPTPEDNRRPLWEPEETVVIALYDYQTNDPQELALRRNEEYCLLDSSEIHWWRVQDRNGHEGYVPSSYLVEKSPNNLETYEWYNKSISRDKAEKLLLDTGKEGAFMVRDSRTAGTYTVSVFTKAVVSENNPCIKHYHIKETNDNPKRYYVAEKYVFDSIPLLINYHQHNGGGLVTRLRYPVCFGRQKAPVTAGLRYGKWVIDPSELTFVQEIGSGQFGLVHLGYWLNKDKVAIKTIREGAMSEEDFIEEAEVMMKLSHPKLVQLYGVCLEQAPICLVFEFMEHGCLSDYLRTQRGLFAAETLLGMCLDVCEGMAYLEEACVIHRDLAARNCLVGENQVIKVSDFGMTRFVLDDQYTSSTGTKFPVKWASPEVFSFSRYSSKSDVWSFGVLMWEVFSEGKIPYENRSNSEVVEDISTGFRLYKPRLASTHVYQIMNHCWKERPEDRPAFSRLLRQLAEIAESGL
In kind it is cell-based. From the text:
See Dubovsky et al. Blood 122.15 (2013):2539-49.

The next experiment concerns MCL cells. It counts as cell-based, human. As to conditions: in the presence of ibrutinib. As to the method: Luciferase/eGFP+ NALM-6 or RL cells were used for cytotoxicity assay as previously described. See, e.g., Gill et al. Blood. 123.15 (2014):2343-54. Targets were incubated at the indicated ratios with effector T cells for 4 or 16 hours. Killing was calculated by bioluminescence imaging on a Xenogen IVIS-200 Spectrum camera.
Additional bioluminescence assays were performed to assess CART19 cell killing of tumor cells. […] After 24 hours, the bioluminescence was detected and quantified.

In a further experiment the test system is CART19 T cells. As to conditions: with or without ibrutinib.
The test system of another experiment is MCL-RL cells. Nature of the experiment: MCL-RL xenograft model in NSG mice. It counts as in vivo. As to conditions: mice treated with CART19 cells and ibrutinib. How it is done: NOD-SCID-γ chain−/− (NSG) mice originally obtained from Jackson Laboratories were purchased from the Stem Cell and Xenograft Core of the University of Pennsylvania. All experiments were performed on protocols approved by the Institutional Animal Care and Use Committee (IACUC). Schematics of the utilized xenograft models are discussed herein. Cells (MCL cell lines or T cells) were injected in 200 ul of PBS at the indicated concentration into the tail veins of mice. Bioluminescent imaging was performed using a Xenogen IVIS-200 Spectrum camera and analyzed with LivingImage software v. 4.3.1 (Caliper LifeSciencies). Animals were euthanized at the end of the experiment or when they met pre-specified endpoints according to the IACUC protocols.
Schematics such as those shown in FIGS. 20, 55, and 5A were used in this example. […] 1×10^6 cells from RL (MCL-3), JEKO-1 (MCL-4), and NALM6 (MCL-5) cell lines are injected in NSG mice (20 mice for each experiment). […] At Day 7, Day 14, Day 21, and Day 28, the bioluminescence is imaged to monitor tumor size. […] Survival of the mice is also monitored. […] 2×10^6 MCL-RL cells are injected into NSG mice. […] At days 14, 21, 28, and 35 (after injection of MCL-RL cells), the bioluminescence is imaged to monitor tumor size.
Mean bioluminescence, representing tumor growth, was assessed at various timepoints.

In the next experiment the test system is CART19 cells. Nature of the experiment: T cell dynamics in blood following IL-7 treatment in the lymphoma animal model. It counts as in vivo, NSG mice. From the text: T cell dynamics following IL-7 treatment in the lymphoma animal model was also examined. […] The extent of T cell expansion observed in mice receiving the IL-7 also correlated with tumor response. The mouse with the highest number of T cells detected in the blood at peak expansion during IL-7 treatment (mouse #3815) had the most robust reduction in tumor burden (see FIG. 49B). Moreover, the time of peak expansion correlated with the T cell dose injected as baseline. The number/level CD3-expressing cells in the blood were also measured before and after IL-7 treatment.

`C=CC(=O)N1CCC[C@@H](n2nc(-c3ccc(Oc4ccccc4)cc3)c3c(N)ncnc32)C1` [ibrutinib, 1-[(3R)-3-[4-Amino-3-(4-phenoxyphenyl)-1H-pyrazolo[3,4-d]pyrimidin-1-yl]piperidin-1-yl]prop-2-en-1-one]: the “phosphorylated ITK (pITK-Y180)” value on ITK (non-specific stimulation of CART19 cells via the TCR) is “reduction in phosphorylated ITK”. The ITK activation result at ITK (specific stimulation of CART19 cells via the CAR) is on record as “did not lead to diminished ITK activation”. Moreover, the “killing of MCL cells by CART19 cells” value with MCL cells was “augmented”. The “TH1 and TH2 cytokine production in CART19 cells” value in the experiment on CART19 T cells is “does not promote skewing of TH1 and TH2 cytokines”. The “peripheral CART19 cells” value in the experiment with MCL-RL cells is “increase in peripheral CART19 cells”.
Regarding IL-7: exogenous recombinant human IL-7, the “CD3+ cells in the blood” value in the experiment with CART19 cells (after IL-7 treatment, versus control mice) was “significant increase”. In the experiment on CART19 cells (upon IL-7 treatment), the “numbers of T cells in blood” value is listed as “rapid, but variable increase”.
